# Reference: the supplement of paper PMC3334620
# Over roughly 33,000 sequences, “E-score (-0.5 to 0.5)” has its median near -0.016; the highest 2% begin near 0.32. The list shows a part of the results.
# Biological target: T1, Stp1 (UniProt B3LFK1)
# T1 sequence: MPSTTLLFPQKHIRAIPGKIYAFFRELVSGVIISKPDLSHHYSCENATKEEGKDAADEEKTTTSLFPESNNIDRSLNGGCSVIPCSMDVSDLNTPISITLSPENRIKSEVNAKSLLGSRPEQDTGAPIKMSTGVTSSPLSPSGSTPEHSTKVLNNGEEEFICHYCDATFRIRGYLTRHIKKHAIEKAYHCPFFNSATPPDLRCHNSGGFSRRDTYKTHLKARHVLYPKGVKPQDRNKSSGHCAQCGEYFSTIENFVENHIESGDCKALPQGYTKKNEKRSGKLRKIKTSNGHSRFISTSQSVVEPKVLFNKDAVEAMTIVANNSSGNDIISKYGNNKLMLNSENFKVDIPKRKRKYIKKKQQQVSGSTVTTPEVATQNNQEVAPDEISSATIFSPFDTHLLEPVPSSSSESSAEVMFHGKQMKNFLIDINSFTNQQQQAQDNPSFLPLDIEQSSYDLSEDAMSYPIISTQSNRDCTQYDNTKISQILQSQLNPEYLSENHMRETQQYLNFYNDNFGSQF
# Experiment: PBM E-score (8-mer binding enrichment) (E-score (-0.5 to 0.5)); higher = stronger / more preferred TF binding; most listed sequences are background and not binding sites
# Conditions: protein concentration: 200 nM; construct: GST-full length
# Protocol: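 Universal 'all 10-mer' protein binding microarrays (Agilent AMADID 015681) probed with GST-tagged S. cerevisiae TFs (full-length or DBD) made by in vitro transcription/translation (PURExpress), about 100-200 nM. Bound TF was detected with fluorescent anti-GST. Each ungapped 8-mer (which stands for itself and its reverse complement) is scored by the PBM enrichment score (E-score), a modified Wilcoxon-Mann-Whitney statistic from -0.5 to +0.5, computed with the Universal PBM Analysis Suite. Scale: above 0.35 generally sequence-specific binding.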
row,Sequence,PBM E-score
1,GCACAACC,-0.151
2,ATTATGGA,-0.00328
3,AAATGGGT,0.00849
4,CAGTTGCC,0.119
5,GGGGTTTA,-0.168
6,AAGGGGCA,0.00645
7,ACCCTACT,-0.184
8,CCCTGTGC,-0.00142
9,GATGTTGA,-0.0867
10,CTTCCTTA,-0.194
11,CAAGCTGA,0.007
12,ATCGCTGC,-0.00912
13,ATGCAATG,0.074
14,AGACAGGA,0.0849
15,CCGGGGGA,-0.263
16,GAGGCATC,0.296
17,TGCAGCAA,0.0652
18,GAAACGCC,0.289
19,AGTTTCGG,-0.0129
20,GCCCGGAA,-0.0934
21,CAGAATAG,-0.0665
22,ACGTCCTG,-0.22

row,Sequence,PBM E-score
1,CTGGGATC,-0.267
2,CCAAGTCC,-0.248
3,TCATGTCA,-0.0676
4,AAGGCGCC,0.424
5,TAAAGCCA,0.141
6,GCGTTGGA,-0.115
7,ATGAGCCC,-0.254
8,CCAGCCTC,-0.308
9,CATTATAC,0.0795
10,CTCATTCA,0.00256
11,CTTAAGAA,0.143
12,AAACGGAC,0.00343
13,GAGCCTGC,-0.191
14,AATCGTCC,-0.119
15,CCAGTGAG,-0.106
16,CCTGTCCA,-0.323
17,CCACCGCG,-0.0193
18,TACGTCGA,-0.194
19,TACTCCGA,-0.225
20,CTAACATC,0.0135
21,ACAAGGCT,0.198
22,ATCATTGC,-0.0426

row,Sequence,PBM E-score
1,GCGGCGAC,0.434
2,ACAACCAC,0.136
3,CCACCGGA,0.0599
4,CCTCATAA,0.0904
5,AGTTGGTG,-0.0845
6,ATGGATTA,-0.0582
7,ACATGGCT,-0.137
8,CTGACGTC,-0.0523
9,ATCGCCCA,-0.213
10,AAATCGAC,0.138
11,AATTGGGT,0.29
12,GAGAGATC,-0.136
13,TCGATGCA,-0.102
14,CGTAGCAC,0.111
15,AAACGCTC,-0.089
16,AGACAAGC,-0.0506
17,CTTCGGAC,0.00313
18,TGATACCA,0.0111
19,CTTCTCAC,-0.0125
20,CGACCCAG,-0.171
21,CCCTCGGA,-0.115
22,CAGGCCGA,-0.228

row,Sequence,PBM E-score
1,ACAACGAT,0.00545
2,ACACGACA,0.0769
3,GTAGAGCA,-0.0188
4,TCCGTAAA,0.0695
5,AGCCGGCG,0.138
6,ACTCTGGG,-0.126
7,AGCGCTCG,-0.149
8,TCTGACCA,0.0759
9,CCTCGCAC,0.0528
10,AGGCCAGC,-0.0895
11,GATAACGC,-0.00971
12,CAGATACA,0.0984
13,ACCCCCCC,-0.311
14,ACCCCGGC,-0.392
15,CTCAAGTA,0.00886
16,CATGCATC,0.0342
17,ACCAAAAT,0.12
18,CGATAACG,-0.288
19,CCACGATC,0.144
20,GTCTTTGA,0.0952
21,AGCAGACG,0.0588
22,ACGTTTAT,0.0901

row,Sequence,PBM E-score
1,CGCTGCCA,-0.0245
2,TAGGTACA,-0.139
3,CAACATCA,0.0627
4,CCTGCGGA,0.0839
5,AAGTTAGT,0.0214
6,GGGGGGGA,-0.356
7,AAGTAACG,0.133
8,ACAGGGTA,-0.125
9,GGGGGTAA,-0.379
10,GGATTGAA,-0.0161
11,ATTCGAGC,-0.0496
12,TATAGACA,0.0363
13,GTATGAAA,0.116
14,AGGCGTTC,0.0316
15,GATGAGGA,-0.0567
16,CCCCTGCC,-0.198
17,AACAGGGT,-0.334
18,ATAGACAA,0.0683
19,AGTTGCGC,-0.0494
20,ATGGATAG,-0.128
21,TCACATGA,-0.139
22,GAATACGA,0.0211
